The record followed here is the RNAGym collection of RNA variant scans (doi:10.7554/elife.90254).

B1: LINE1-mini (parent)
chain: GGCAGAGCUCAACACAGCGUGGCAAAGUGGCUGUGGCUAGACUGCC

The source gives no read counts; variants with many changes may rest on few reads.

In this series the parent is B1. Description: self-cleavage, relative activity (ratio to wild type); higher = more cleavage; in vitro, sequencing; the parent is a self-cleaving ribozyme.
In the case of A6C G19U U43A, the self-cleavage was found to be 0.03.

Consider A6C G33A G35U U43C, for which the self-cleavage came out at 0.05.

A6C G17A C23A A24G G36C U43A G44U: the self-cleavage turned out to be 0.

Consider A6C G33U A39U, for which the self-cleavage came to 0.07.

With A6G A11C U20A, the self-cleavage was 0.03.

In the case of A6G A11U C13U U32G U34A U43C C45G, the self-cleavage was found to be 0.

On to A6G A16C G36C C45U, for which the self-cleavage worked out at 0.03.

As to A6C U9A C13U C37U, the self-cleavage is 0.16.

As for A6C G17U G22U U32G G35A A39C, the self-cleavage was 0.05.

With A6G A16C C23G G35U, the self-cleavage is 0.01.

As for A6C G22U C45U, the self-cleavage was found to be 0.65.

As to A6C G21A U38A, the self-cleavage worked out at 0.64.

Consider A6G A16G G27U G44U, for which the self-cleavage stood at 0.11.

Turning to A6G A11C U28A, the self-cleavage worked out at 0.01.

A6G A12C A16G A26C G36A C37G: the self-cleavage worked out at 0.01.

In the case of A6C G7U G40U, the self-cleavage worked out at 0.03.

A6G A24C G36U: the self-cleavage amounted to 0.09.

On to A6C U9G U34A G44C, for which the self-cleavage turned out to be 0.03.

Turning to A6G A14U C37U, the self-cleavage worked out at 0.01.

For the variant A6G A12U G36C, the self-cleavage came to 1.52.

With A6C G21C A26C U32G A39U, the self-cleavage was determined as 0.02.

A6G A11C C13A: the self-cleavage was found to be 0.01.

A6C G29A U38G: the self-cleavage worked out at 0.03.

With A6C G22A C23G G27U C37G, the self-cleavage was 0.

As for A6G A16U C37U A41U, the self-cleavage was 0.01.

As to A6G A12U C18A C23U, the self-cleavage is 0.08.

For the variant A6C G22C U43A, the self-cleavage came to 0.

As to A6C G22U A26U C42A, the self-cleavage is 0.04.

In the case of A6G A12C A41U, the self-cleavage came out at 0.01.

A6G A14C A41G: the self-cleavage is 0.03.

Take A6C G36A U43A: the self-cleavage is 0.11.

Turning to A6G A14C A24C, the self-cleavage amounted to 0.

Regarding A6C G22U G27U, the self-cleavage worked out at 0.24.

With A6G A16G G30U, the self-cleavage stood at 0.01.

For the variant A6G A24C G40U, the self-cleavage was determined as 0.01.

In the case of A6C G7U G17A A25C, the self-cleavage came out at 0.19.

Regarding A6C G17A G22C C45G, the self-cleavage is 0.03.

Take A6C U9A C31G: the self-cleavage was found to be 0.01.

As to A6C U9G A16C, the self-cleavage came to 0.01.

A6C G22A G40A: the self-cleavage is 0.33.

As to A6G A11C C15A G22U A25G G40C, the self-cleavage was found to be 0.01.

For A6C U32C G36A U38C, the self-cleavage is 0.01.

As to A6C U9G C13A A24U U28C C42G G44A C46A, the self-cleavage came to 0.01.

Turning to A6C U9G C13G G40A, the self-cleavage was 0.11.

On to A6C G21U G27U G36U, for which the self-cleavage is 0.05.

As for A6C U9G G29U C46A, the self-cleavage came out at 0.04.

In the case of A6G A14U G29U, the self-cleavage amounted to 0.08.

As to A6G A14G A26G, the self-cleavage amounted to 0.02.

For the variant A6G A14C C37U, the self-cleavage came out at 0.05.

Regarding A6G A14U G30U, the self-cleavage was 0.09.

On to A6G A11C A16C C45A, for which the self-cleavage was 0.01.

In the case of A6G A11U A39G C46A, the self-cleavage amounted to 0.01.

Turning to A6C U9A G29C G36A C37A A39U, the self-cleavage was found to be 0.04.

As for A6C G33A A39G G44A, the self-cleavage stood at 0.03.

Take A6G A14G G17U G36U C46U: the self-cleavage came to 0.02.

On to A6G A11C A12C G40A A41G G44A, for which the self-cleavage is 0.

Turning to A6C U9C U20C G30U G33C, the self-cleavage worked out at 0.02.

With A6G A25U U34A C42A, the self-cleavage worked out at 0.03.

Take A6G A12U C46G: the self-cleavage was determined as 0.13.

As to A6G A12C G29C C31A G36C, the self-cleavage worked out at 0.

Take A6C G40A C42A: the self-cleavage stood at 0.02.

In the case of A6C G40C G44A C45A, the self-cleavage amounted to 0.02.

With A6C G7U G19A U38G, the self-cleavage is 0.03.

For the variant A6C G40U C42A, the self-cleavage is 0.04.

For the variant A6C U9G U28A, the self-cleavage came out at 0.04.

With A6C G21U C31U, the self-cleavage was 0.06.

For the variant A6C G22U G36A, the self-cleavage came out at 0.13.

As to A6C U32C G40C G44C, the self-cleavage was 0.01.

Take A6G A14C C18U: the self-cleavage is 0.09.

Consider A6C G35U U38G, for which the self-cleavage amounted to 0.01.

For the variant A6G A24G G40U, the self-cleavage came to 0.04.

Regarding A6C G22U U28A G29C G35A, the self-cleavage was found to be 0.04.

Turning to A6C G27U U34G A41U G44C, the self-cleavage came out at 0.12.

As to A6C G21U C45U, the self-cleavage was found to be 0.12.

A6G A11G G19C G27A: the self-cleavage worked out at 0.12.

In the case of A6G A16G U28A U43A C45U, the self-cleavage is 0.11.

Regarding A6C G19U G33C U34A G40U, the self-cleavage was determined as 0.18.

As for A6G A25G U38C, the self-cleavage is 0.02.

Take A6C G21A G22U: the self-cleavage was determined as 0.06.

As for A6C U28C A39G, the self-cleavage was 0.04.

As for A6C G40U C45U, the self-cleavage amounted to 0.04.

A6C G19U U32C A41U: the self-cleavage worked out at 0.17.

In the case of A6C G7U G19U G22A, the self-cleavage turned out to be 0.07.

For the variant A6G A16G G17C G21A G35C G40C A41C, the self-cleavage was determined as 0.04.

A6G A25G A41C G44A: the self-cleavage was 0.02.

Consider A6C G21C U28G U32C C45A, for which the self-cleavage worked out at 0.02.

For A6C G21U A41U, the self-cleavage was found to be 0.09.

Consider A6G A12G G29U G36U, for which the self-cleavage worked out at 0.01.

A6C G17C C18G G21A U32A A39G C45A: the self-cleavage came to 0.04.

A6G A12U G21C G44U: the self-cleavage turned out to be 0.19.

With A6G A14G G44C, the self-cleavage turned out to be 0.02.

Consider A6C G21U U28G C37A, for which the self-cleavage was determined as 0.03.

For the variant A6C U9A U20G G22A A24U G29U C37A, the self-cleavage was 0.03.

On to A6G A24G A25C, for which the self-cleavage turned out to be 0.18.

A6C U9A G35C G44C: the self-cleavage was determined as 0.04.

Take A6C U32G G44A C45A: the self-cleavage is 0.03.

As for A6C U20G C31A, the self-cleavage amounted to 0.05.

In the case of A6G A12C G36A C37U, the self-cleavage worked out at 0.15.

As to A6G A24U A25G, the self-cleavage was determined as 0.05.

In the case of A6C G21A C37G C46U, the self-cleavage is 0.03.

In the case of A6G A11U A24G C31A U34G C37U U38A C46U, the self-cleavage turned out to be 0.

Take A6C U9G G17C C46U: the self-cleavage worked out at 0.12.

With A6C U9G G19A A26G G27A, the self-cleavage was 0.01.

Consider A6C G7U U43C, for which the self-cleavage worked out at 0.88.

On to A6G A16G U34G, for which the self-cleavage was 0.02.

For A6C G21A U34A G40A, the self-cleavage turned out to be 0.04.

As to A6G A12U A16U C23A G30C C31U G33U A41U, the self-cleavage was found to be 0.12.

For A6G A12C U20C, the self-cleavage turned out to be 0.

For the variant A6G A16U A25C U34G, the self-cleavage stood at 0.

With A6C G17U U20A G27C C37A U38G, the self-cleavage stood at 0.01.

As for A6C G35A C37G, the self-cleavage amounted to 0.07.

For A6C U9G C15A C18G, the self-cleavage worked out at 0.12.

A6C U9C U34A U43C: the self-cleavage worked out at 0.03.

A6G A24G A39G C45A: the self-cleavage is 0.1.

As to A6C G17C G22A U28G G29U G33C, the self-cleavage worked out at 0.64.

For the variant A6C U9C G36A C37U, the self-cleavage amounted to 0.05.

In the case of A6G A25G A39C, the self-cleavage came out at 0.31.

As for A6C G21C G44A, the self-cleavage was determined as 0.11.

For the variant A6C G29C C37U, the self-cleavage was 0.

For A6G A14C G17U C18A, the self-cleavage came out at 0.01.

Regarding A6G A16G G17A G33A, the self-cleavage came to 0.

As for A6G A25U G44U, the self-cleavage stood at 0.13.

As to A6G A16U C18A, the self-cleavage came to 0.08.

A6G A12U G22C C23A A41U G44C: the self-cleavage stood at 0.01.

For A6C U20G U32C C42U, the self-cleavage is 0.02.

Regarding A6C U9G U20A A26G, the self-cleavage worked out at 0.01.

With A6C G21A A24G, the self-cleavage was found to be 0.66.

Consider A6G A11C A26U G33A, for which the self-cleavage turned out to be 0.19.

For A6C U20G C23U G30C G36U, the self-cleavage was found to be 0.05.

For A6C G21U G29U, the self-cleavage was found to be 0.76.

A6G A16U U43C: the self-cleavage is 0.01.

As to A6G A12C C15U A16U G17C, the self-cleavage stood at 0.03.

For A6C U20A U38C, the self-cleavage is 0.14.

For A6G A11U U43A, the self-cleavage was found to be 0.01.

In the case of A6C G27C U38G U43A, the self-cleavage was determined as 0.

For the variant A6G A14U G17U G27C G29A G44U, the self-cleavage is 0.23.

On to A6G A11U C13U, for which the self-cleavage is 0.02.

For A6C U20C G30U, the self-cleavage came out at 0.53.

For A6G A25G U34A C37A U38C U43C C46A, the self-cleavage is 0.

Turning to A6C U9C A16C U32G U38A, the self-cleavage stood at 0.03.

As to A6G A24G G33U G40U, the self-cleavage is 0.01.

As to A6C U20C G29A G35U G36A C46U, the self-cleavage was 0.06.

As to A6G A12U U20G G27U C45U, the self-cleavage is 0.01.

A6G A11C G17U A25C U38C C42U: the self-cleavage turned out to be 0.01.

Take A6C U20C G21U G33A: the self-cleavage came out at 0.02.

For the variant A6G A14G G22U, the self-cleavage came out at 0.07.

Consider A6C G40A G44U, for which the self-cleavage came out at 0.04.

For the variant A6C G21A G27A C45G, the self-cleavage is 0.07.

Regarding A6C G21A A25U G27C G35C G36U, the self-cleavage amounted to 0.

As to A6G A11G U32G A41C, the self-cleavage came out at 0.

Take A6G A14G A24C G33U: the self-cleavage amounted to 0.

In the case of A6C G29A G30U A39C A41G, the self-cleavage was found to be 2.11.

Regarding A6G A11G C15U G35C G44A, the self-cleavage worked out at 0.05.

Turning to A6C G22A C31A, the self-cleavage stood at 0.3.

As for A6C G21U A24U A41C, the self-cleavage came to 0.07.

Take A6C U28G U34C: the self-cleavage amounted to 0.02.

As to A6G A12C A14C G30A C37A A39U C46U, the self-cleavage came to 0.01.

For A6C G29A G36A, the self-cleavage worked out at 0.41.

As to A6C G33A A39G, the self-cleavage was found to be 0.03.

Regarding A6C G17A G30A U32G G33A, the self-cleavage turned out to be 0.

For the variant A6C U20A A39U G44A C45G, the self-cleavage was 0.11.

On to A6C G21U C23A, for which the self-cleavage turned out to be 0.45.

As for A6C G22U C46A, the self-cleavage was determined as 2.05.

As for A6C G30C U43C, the self-cleavage came to 0.11.

Consider A6C G27C C42U, for which the self-cleavage turned out to be 0.07.

Take A6G A14G G17C A24U G33A C37U: the self-cleavage stood at 0.

In the case of A6G A14C U32C G35A U38A, the self-cleavage was determined as 0.
